Some of the results follow.
tested on: S. aureus RN4220; experiment: growth inhibition call (relative growth <= 0.2); conditions: 50 µM

Growth inhibition call, inactive:
O=C(NC[C@H]1Cn2nncc2CO1)c1ccc[nH]1
C[C@H](CO)N1C[C@H](C)[C@@H](CN(C)C(=O)c2ccc(F)cc2)OCc2ccccc2-c2c(n(C)c3ccccc23)C1=O
O=C(C[C@@H]1CC[C@H]2[C@@H](COC[C@H](O)CN2C(=O)c2ccncc2)O1)NC1CCC1
C[C@@H]1CN([C@@H](C)CO)C(=O)c2cc(NC(=O)C3CCCCC3)ccc2O[C@@H](C)CCCCO[C@H]1CN(C)Cc1ccc(C(=O)O)cc1
C[C@@H]1CN([C@H](C)CO)C(=O)c2cc(NC(=O)Nc3cccc4ccccc34)ccc2O[C@H]1CN(C)S(=O)(=O)c1cccs1
C[C@H](CO)N1C[C@H](C)[C@H](CN(C)Cc2ccc(Oc3ccccc3)cc2)Oc2ccc(NC(=O)Nc3ccc(F)cc3)cc2C1=O
C[C@@H]1CCCCO[C@H](CN(C)Cc2ccc3c(c2)OCO3)[C@H](C)CN([C@H](C)CO)C(=O)c2cc(NC(=O)Nc3ccc(F)cc3)ccc2O1
C[C@@H]1CN([C@H](C)CO)C(=O)Cc2cc(NC(=O)Nc3ccc(C(F)(F)F)cc3)ccc2O[C@H]1CN(C)Cc1ccccc1
COCC(=O)N(C)C[C@@H]1Oc2cc(C#Cc3ccccc3)ccc2S(=O)(=O)N([C@H](C)CO)C[C@@H]1C
C[C@H]1CN([C@@H](C)CO)C(=O)c2cc(NC(=O)Nc3ccc(C(F)(F)F)cc3)ccc2O[C@H]1CN(C)S(C)(=O)=O
O=c1c(O[C@@H]2O[C@H](CO)[C@@H](O)[C@H](O)[C@H]2O)c(-c2ccc(O)c(O)c2)oc2cc(O)cc(O)c12
COc1ccc(NC(=O)N(C)C[C@H]2OCCCC[C@@H](C)Oc3ccc(NC(=O)CCC(F)(F)F)cc3C(=O)N([C@H](C)CO)C[C@@H]2C)cc1
C[C@H]1CN([C@@H](C)CO)C(=O)c2cc(NS(C)(=O)=O)ccc2O[C@@H]1CN(C)S(=O)(=O)c1ccccc1

Reference: the antibiotic and cytotoxicity screens of Wong et al. (2023)
